# Assay results taken from the supplement of paper PMC12632987.
# Whole data set: some 4,500 sequences, median “median log2 fold change of GCK-ALFA target abundance (FLAG IP / Myc IP barcode read proportion)” near 0.078, cut for the lowest 2% near -0.6. The list shows a part of the results.
# B1: GBRAP_11_2620 (protein)
# chain: SKETLKELAKLAKEAAKAVEELLKVGVDDEELQKKIEKLLKELAELVKKHGSEADKKDVEIAKELFKKAKEDKENKEQYYKELLAALRVFEGDYLLDIEE
# B2: GBRAP_125_3130 (protein)
# chain: SEEEVLKNLALFLKAMGESEDDIAEAVEIARKHGVKGTMYAFALAQGWEELAEEVEKLTEEEVKEVLKELAKELEANPDLTPEEVKELALELARKKLAAR
# B3: GBRAP_150_3916 (protein)
# chain: DLETLLTIADTALDLVEAILEGHLELLPHAVKLAEDALEEAKEITEEVKELAKKALDKLKKAEKLVKEGAPLEEIKKEAKEAAEYLKELIKEIEKLIKEE
# B4: GBRAP_83_6925 (protein)
# chain: KEKITVAANKDHIEEAAEAAIDLHKNEGYEVDLEFIITKESVPKLLKAFEKLAKAGLNSNVTVLAEGMTEEEAEALKKELEAIAKKYGVNWKVEVYLIEP
# B5: GBRAP_74_6531 (protein)
# chain: DAALLAALEAAAEAKDFARAIALTREALATGSRETKIRALAILTAAFTAHADEMTAEEVDAAVDVIVEAELVLEDEDITPELAAGMAVIVAKGVELEKEA
# B6: GBRAP_9_7153 (protein)
# chain: MEELLEKVREVIEDAFEEISKVVPEEVKPVVEELREEAEERFEELREDENITPEEIKEEALEILKELRERLSKLVSPEIAKMVDAIVDTAELEIEELYEE
# B7: GBRAP_160_4095 (protein)
# chain: MEKVEELIEEIDELRDETIEMIEGEDIAQRATILRGFGGDVLMLLFESGIVSEETEDFADEEFDDLVETVEANPDLTLEEIKALLDEVVEAVKEKIKENG
# B8: GBRAP_184_5262 (protein)
# chain: KVLERVVRAENVEELRKKLAEIREEALATGADVIILLEVEELTEEMIDALFEELKELREAGYKGEIVVGIDADLTEEMIDYVLEKADEAGVKVVLEIDEE
# B9: GBRAP_160_4814 (protein)
# chain: MEKVEKKLKEAEERLLETAEASKDLPVAERAKLLEAEGYTEILDLEEELNLSDETVDKLVKIVDDMVATLLANPDLTDEEVLALVREAAEKIRKEVLKEA
# B10: GBRAP_160_4168 (protein)
# chain: SSLLEEAKKEIEEIFEETIKMIEGQTAEERAAIVRVAFGEIILLLEEKGLLTDELDEKIEEIEDELVNWILENPDLTDEEIKEKIEEALEKIKKALEESS
# B11: GBRAP_160_4045 (protein)
# chain: SEAAEKAAEESERLFDETIELMRDLTPEEAAVAMDVTVGEAIMEVVELGIEVTPEMAAVADEARALRDAVLADPSTTVEEVIARARELRERFVAAIRAQA
# B12: GBRAP_160_4143 (protein)
# chain: SEELKKLIEEIREITEEALELIEGESPAEAKTIARVALGEIVMLVDSSEAVSEETKEKVGKVADEAEAKLRANPDASVEEVKALLREATEKVVKILEEEI
# B13: GBRAP_64_6491 (protein)
# chain: MEEIEKLLEELEKLVEELLKAVADLSEELQEKVQEVLELVKEAKEASLEERLDLVVEAAKLLNEILKNPELTEEQKELAGLALDKANELAWELFEELEKE
# B14: GBRAP_128_3535 (protein)
# chain: SLEEVRAYAAAVVDEIKASDVATARAITKAWLERLKTWSLEEVEAAVDVLIERLPELTAEKLDAVADAIRENRGTLTPEKQRLVNGVEVEALNLAEELEE
# B15: GBRAP_125_3128 (protein)
# chain: MEEEDLEDLARLLRALGFSEEDVEEAVELARRFSIRGTLVAAALAEGWEELADALAKLSEEQTREVVRRTVEALDANPGLSPEEVRELLLRLAREAVAAS
# B16: GBRAP_184_5151 (protein)
# chain: TTVHRSVEAETVEEGIKKAREALEEAKAAGEKLVLHLDAKGLSVEEVEELMKEVVRLAKEAGLEDAQIVVHVEADEEEADKLIEIADKLGVKLVVALLEE
# B17: GBRAP_160_4696 (protein)
# chain: SETKEKLKKFVDEELEKAKEMIKGETIEQRAVIVSGTGGEILMEFVEEEEVTDELEDEVLKIIDETVEYILANPNLTDEEMKELIDEMKEKIKEAIDKHL
# B18: GBRAP_160_4652 (protein)
# chain: SAEVEKLIEEIAAEFDEAVAMMKGESHENRVAIAQDMRGRVLLLLEESPLVSEEAEEEVDKILDELVATIAANPDLTDAELAALFEEALAKIKEALEKHS
# B19: GBRAP_160_4648 (protein)
# chain: SESLEEILEVIDEYSEIAKEAVKEGNLENAIAAMRMMTGDVVLLADEDPRFSEEDVDELDELGDKAVAELEAAKDKSPEELIALIDKGTEELKKLVKEKY
# B20: GBRAP_137_3623 (protein)
# chain: KKVKITFYEEDGVAIAEITADTSVDKEKVLEIVEEVAEKHGVKLVVALTEPDEPAVFYLVGTPEQVIAAVKELIKRLKEELGIEVELSSEGAEELVEEVK
# B21: GBRAP_52_6283 (protein)
# chain: SMEEVEEIAERIVELIKEGKLEEALELAREAVEKLSLEEVIRLGELLVERIAELEPEQLDLALEVVEEIARGLEEKFGAEEEADIIEARAAAAAYKRLQA
# B22: GBRAP_74_6543 (protein)
# chain: MEEEVEKIIEILKNGNDEEKIEAIKKIKLDFSTENLKRLLLALAELAIEAAEAGNKELLEAATDKMVEIYDRIAGEPLDPETEKALVEALAAAVAAEKAA
# B23: GBRAP_14_3871 (protein)
# chain: KEEVLELINKAIDEMEKEMKKLLPEKAEEIEKVAEEVRKKAKELIEEEDDVEEIMEKIREYSLKLVEEAFKDLPPEDRAALLATADNEFAEVDLEIEEKL
# B24: GBRAP_52_6351 (protein)
# chain: MEEKARAIALEMVALKLAGDEEALRARAKEIAKTWSDEEIELLFKELARLAKTATPEEAEAILEVAEVLADELIAAGRDEYFASALLADVAKAVYENLQK
# B25: GBRAP_195_5412 (protein)
# chain: KKVVGRVLRVTAEDTPEQILAKIEAIVAEVKAASNGDLVLVVARDPSVPEETIRAAVARAQARYPDIKITVEIFDDPSLPEATLQRFAEMEVLNLEEELE
# B26: GBRAP_52_6022 (protein)
# chain: MEEELEEKVEELLELVKEGKEEEARKAAKELVESLNEEELELLIEVLARRAREARPEDHEAVWRLTEIIAEALEEAGVDEALADDLEARVAAALYEALQR
# B27: GBRAP_128_3515 (protein)
# chain: SMEEAVERVKELMERIGEADEEEARELTRELAELIASNDDETAEAMADKAIELLPKLSREKLEVVADTLREVRPSLSPLKANLVADIEVEALNLAEELEE
# B28: GBRAP_52_6052 (protein)
# chain: MEERLRALVERALELMRAGDEEGARALLREVAETLDEEELELFAELLAEAAAKAAPEEHDAMARLAELWEDALLEAGVDEAFADDALARIYAALYEAEQK
# B29: GBRAP_52_5952 (protein)
# chain: MAARIAALVDELWALVKAGRLEEARALARELVRTLDDAELEAFAAAVAARVAAAPPEELDAAFTLAEIVADEIEREGRDEALAGDLLAAAARALHAKELA
# Target: GABARAP, O95166
# Sequence (O95166 whole entry, the tested form may be a part): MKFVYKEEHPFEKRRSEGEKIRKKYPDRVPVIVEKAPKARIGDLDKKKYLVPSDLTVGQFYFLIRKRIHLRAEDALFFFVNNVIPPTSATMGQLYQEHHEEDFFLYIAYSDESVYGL
# Test: median log2 fold change of GCK-ALFA target abundance (FLAG IP / Myc IP barcode read proportion) (log2 ratio); each designed protein is fused to an ALFA-tag nanobody in HEK293 cells to bring the named protein to FLAG-tagged glucokinase (GCK); Myc marks an untargeted standard; higher = target protein stabilised (more abundant)
# Conditions: target protein: 3xFLAG-MCP-GCK-ALFA reporter; HEK293 landing pad (RPLP)
# How it was run: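 HEK293 landing-pad cells received a recombined binder library fused to the ALFA nanobody and were induced with 2 μg mL^−1 doxycycline, then transfected with a plasmid encoding a FLAG-tagged target and a Myc-tagged standard. Lysates were collected after 48 h for anti-FLAG and anti-Myc immunoprecipitation, and the circular RNA barcodes were reverse transcribed, amplified and sequenced. Target abundance for each binder is the median log2 ratio of FLAG to Myc barcode read proportions. Barcodes had to reach a proportion of at least 10^−7 in both replicates, each binder needed at least 3 barcodes per replicate, a pseudocount of 10^−6 was applied, and the two replicates were pooled.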
row,Binder,median log2 fold change
1,B1,0.183
2,B2,0.265
3,B3,-0.223
4,B4,0.166
5,B5,0.214
6,B6,0.157
7,B7,-0.245
8,B8,-0.0412
9,B9,-0.0227
10,B10,-0.0907
11,B11,0.116
12,B12,0.0641
13,B13,-0.116
14,B14,0.253
15,B15,-0.258
16,B16,0.102
17,B17,-0.431
18,B18,0.239
19,B19,-0.141
20,B20,-0.628
21,B21,0.00472
22,B22,-0.382
23,B23,0.0963
24,B24,0.161
25,B25,0.171
26,B26,0.0922
27,B27,0.0774
28,B28,-0.0838
29,B29,0.0459
